Measurements reported in PubChem BioAssay AID686978 (National Center for Advancing Translational Sciences (NCATS), 2013).
Among all 420,000 compounds or so, about 64,000 (15%) were called active. Inconclusive results, whose numbers are uncertain, are shown with a selection of clear calls. Calls come from the whole dose curve; as a rule, active = well fitted inhibition curve with a large enough effect; inconclusive = small, poorly fitted or top-dose-only effect; inactive = flat fitted curve, though single readings scatter. No potency is given beside an inconclusive call; the fits are too rough.

Assay: qHTS for Inhibitors of human tyrosyl-DNA phosphodiesterase 1 (TDP1): qHTS in cells in absence of CPT; note: nearly all actives have a fitted effect of over 55% in size
Details: DT40 Tdp1-/- hTDP1 cells, no CPT, ATP luminescence, 48 h; activity change, negative = growth inhibition: at 46.2 µM (top of the series)
Outline: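 Chicken DT40 Tdp1-/- cells stably complemented with human TDP1 were seeded at 400 cells/well with DMSO in place of 20 nM camptothecin. After compound pinning, cells grew at least 48 hr at 37 °C; viability read by CellTiter-Glo luminescence.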
% is set by controls: 0 for no effect and ±100 for the full control effect; potency is the fitted concentration of half-maximal effect; tags give direction and shape of the fitted curve.

SMILES	Potency	activity change, negative = growth inhibition
Cc1ccc(C)c(OCc2nc3ccccc3[nH]2)c1	inconclusive [inhibitor, single point]	–
Cc1[nH]n(C(N)=S)c(=O)c1N=Nc1cccc(Cl)c1	inconclusive [inhibitor, partial curve]	–
COc1cccc(CCc2ccccc2OCC(CN(C)C)OC(=O)CCC(=O)O)c1 (stereo unspecified)	active: 11.2 µM	–
CN(C)c1ccc(-c2ccnc3c2CC(C)(C(=O)NCCc2ccccc2)O3)cc1 (stereo unspecified)	inconclusive [inhibitor, partial curve, poor fit]	–
CCOC(=O)c1c(S(=O)(=O)N2CCC(C(=O)Nc3ccc(F)cc3F)CC2)c(C)n(C)c1C	inactive	–
CCc1sc(C(=O)NCc2ccco2)cc1C	inconclusive [inhibitor, single point]	–
O=C(Nc1ncccc1O)c1ccc(S(=O)(=O)N2CCCCCC2)cc1	inconclusive [inhibitor, single point]	–
CCOc1ccc(CNS(=O)(=O)c2ccc3c(c2)CCCN3C(C)=O)cc1	inconclusive [inhibitor, single point]	–
O=C(CCCc1c[nH]c2ccccc12)Nc1ccc2ccccc2c1	inactive	–
COC(=O)c1ccc(Nc2c([N+](=O)[O-])c(=O)oc3ccccc23)cc1	inconclusive [inhibitor, single point]	–
O=C(NCCc1csc(-c2cccnc2)n1)c1c(F)cccc1F	inconclusive [inhibitor, single point]	–
Cc1ccc(S(=O)(=O)N2CCOCC2)cc1NC(=O)COC(=O)COc1cccc2c1OC(C)(C)C2	inactive	–
CCCCOc1ccc(C(=O)Nc2ccc(C)cc2[N+](=O)[O-])cc1	inconclusive [inhibitor, single point]	–
CC1Cc2cc(S(=O)(=O)CCC(=O)NCc3ccccc3Cl)ccc2N1C(=O)C1CC1 (stereo unspecified)	active: 7.31 µM	–
COc1ccccc1CNC(=O)CSc1nnc2c(n1)[nH]c1ccc(F)cc12	inactive	–
O=C(OCc1nnc(-c2ccccc2)o1)C1CCN(S(=O)(=O)c2cccs2)CC1	inactive	–
Cc1nc(N)sc1C(=O)N/N=C/c1c[nH]c2ccccc12	inconclusive [inhibitor, single point]	–
COc1ccccc1NC(=O)CSc1nnc(-c2ccoc2C)n1C	inactive	–
O=C(NC(=S)N1CCCc2ccccc21)c1ccc([N+](=O)[O-])cc1	inconclusive [inhibitor, partial curve]	–
O=C(COc1ccc(F)cc1)N1CCCc2ccccc21	inconclusive [inhibitor, partial curve]	–
COc1ccc(/C=N/NS(=O)(=O)c2ccc(C)cc2)cc1OC(=O)c1ccc(C)cc1	inactive	–
CC[C@H](CO)Oc1cc(NCc2ccc(Cl)c(Cl)c2)c2ncn(C(C)C)c2c1	inconclusive [inhibitor, single point]	–
Cc1nc(N2CCOCC2)nc(N2CCCCC2C)c1[N+](=O)[O-] (stereo unspecified)	inconclusive [inhibitor, partial curve]	–

SMILES	Potency	activity change, negative = growth inhibition
O=C(O)COc1ccccc1/C=C1\SC(=Nc2ccc(F)cc2)N(c2ccc(F)cc2)C1=O	inactive	–
CCOC(=O)c1[nH]c(C)c(/C(O)=C2\C(=O)C(=O)N(CCN3CCOCC3)C2c2cccs2)c1C (stereo unspecified)	inactive	–
CN1CCN(C(=O)c2cc3c(c(-c4cccc(-c5cc6ccccc6o5)c4)n2)[C@@H](CCO)N(S(=O)C(C)(C)C)C3)CC1 (stereo partly specified)	inconclusive [inhibitor, single point]	–
COc1ccc(-n2cc(C(=O)Oc3cc(C)cc(C)c3)c3ccccc3c2=O)cc1	inconclusive [inhibitor, single point]	–
Fc1ccc(CNC(=S)NCc2ccccc2)cc1	inactive	–
COc1ccc(CNC(=O)C2(C)Cc3c(-c4cccc(NC(C)=O)c4)ccnc3O2)cc1OC (stereo unspecified)	active: 18.4 µM	–
C#CCOc1ccccc1/C=C1/C(=O)ON=C1C	active: 14.6 µM	–
CCCn1ncc(CN2CCC(CO)(CC3CCCCO3)CC2)c1C (stereo unspecified)	inactive	–
CCN(CC)Cc1c(NC(=O)c2ccccc2)sc(C)c1C	inconclusive [inhibitor, single point]	–
Cc1cc(C)c(NC(=O)CN(C)C(=O)c2ccc(OCc3ccccc3)cc2)c(C)c1	inconclusive [inhibitor, single point]	–
COC(=O)/C(=C/N(C)C)C(=O)N1CCN(c2ccc(Cl)c(Cl)c2)CC1	inconclusive [inhibitor, single point]	–
NC(=O)c1cc([N+](=O)[O-])ccc1NCCc1ccccc1	inconclusive [inhibitor, single point]	–
CCOC(=O)C1=NN(c2ccccc2)C2=NC(C)=C(C(=O)OC)C(c3cccs3)N12 (stereo unspecified)	inactive	–
COc1ccc(CC(=O)N(Cc2cc3cc(OC)ccc3[nH]c2=O)C(C)C)cc1	inconclusive [inhibitor, single point]	–
COc1ccc(/C=N/N(Cc2ccccc2)c2ccccc2)cc1O	inconclusive [inhibitor, single point]	–
CC(C)(CSc1nncn1N)NS(=O)(=O)c1ccc(Cl)cc1	–	inconclusive: -22.8% [inhibitor]
NC(=O)c1c(NC(=O)Cn2nc(C(=O)O)c3ccccc3c2=O)sc2c1CCCC2	inconclusive [inhibitor, single point]	–
COc1cccc(Oc2cc(NN3CCCCC3)c([N+](=O)[O-])cc2[N+](=O)[O-])c1OC	inactive	–
Cc1ccc(N(CC(=O)N2CCN(Cc3ccccc3)CC2)S(C)(=O)=O)cc1C	inactive	–
COc1ccccc1CC(=O)Nc1ccc2nc(Nc3cccc(Cl)c3)cc(C)c2c1	active: 16.4 µM	–
Cc1onc(-c2ccccc2)c1C(=O)Nc1nc2c(s1)CCCC2	inconclusive [inhibitor, single point]	–
CC(NC(=O)c1ccnn1C)C1CCCO1 (stereo unspecified)	inactive	–
OC(CN1CCCC1)Cn1ccc2ccccc21 (stereo unspecified)	inactive	–
